The supplement of paper PMC8285479
Where a name gives a salt, the structure may show the parent alone. ± gives the standard deviation of the averaged measurements. Whole data set: some 1,900 compounds, median “normalised cell viability (NPI; 0 = phenylarsine oxide control, 1 = DMSO control)” near 1, cut for the lowest 2% near 0.039. The list shows a part of the results.

System: NCI-H1944
Experiment: normalised cell viability (NPI; 0 = phenylarsine oxide control, 1 = DMSO control) (fraction of DMSO control); NCI-H1944 is a non-small cell lung cancer line; higher = more viable cells (less compound toxicity)
Details: 6 days
[1] = glucocorticoid arm: hydrocortisone 2.75 uM co-treatment, compound 1 µM
[2] = glucocorticoid arm: hydrocortisone 2.75 uM co-treatment, compound 5 µM
[3] = glucocorticoid arm: hydrocortisone 2.75 uM pre-treated 2 days and continued, compound 1 µM
[4] = glucocorticoid arm: hydrocortisone 2.75 uM pre-treated 2 days and continued, compound 5 µM
[5] = glucocorticoid arm: vehicle, compound 1 µM
[6] = glucocorticoid arm: vehicle, compound 5 µM
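Also: CTB read-out in 384-well plates, mean of triplicate wells, normalised per plate against 1 µM phenylarsine oxide and 0.1% DMSO, compounds added 24 h after seeding.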

N[C@@H]1C[C@H]1c1ccccc1.N[C@H]1C[C@@H]1c1ccccc1 [Tranylcypromine hemisulfate]
normalised cell viability [1]: 1 ± 0.026
normalised cell viability [2]: 0.998 ± 0.019
normalised cell viability [3]: 1.003 ± 0.01
normalised cell viability [4]: 1.01 ± 0.024
normalised cell viability [5]: 1.005 ± 0.0057
normalised cell viability [6]: 1 ± 0.012

O=C(CCCN1CCC2(CC1)C(=O)NCN2c1ccccc1)c1ccc(F)cc1 [Spiperone]
normalised cell viability [1]: 0.9873 ± 0.004
normalised cell viability [2]: 0.99367 ± 0.00058
normalised cell viability [3]: 0.892 ± 0.17
normalised cell viability [4]: 1 ± 0.023
normalised cell viability [5]: 0.9803 ± 0.0032
normalised cell viability [6]: 0.981 ± 0.001

COC[C@H]1OC(=O)c2coc3c2[C@@]1(C)C1=C(C3=O)C2CCC(=O)[C@@]2(C)C[C@H]1OC(C)=O (stereo partly drawn) [Wortmannin from Penicillium funiculosum]
normalised cell viability [1]: 0.916 ± 0.025
normalised cell viability [2]: 0.279 ± 0.019
normalised cell viability [3]: 0.978 ± 0.012
normalised cell viability [4]: 0.843 ± 0.012
normalised cell viability [5]: 1.043 ± 0.0058
normalised cell viability [6]: 0.0755 ± 0.0093

CC(C)Oc1cccnc1N(C)C1CCN(Cc2ccccc2)CC1
normalised cell viability [1]: 0.993 ± 0.016
normalised cell viability [2]: 0.954 ± 0.026
normalised cell viability [3]: 1.01 ± 0.024
normalised cell viability [4]: 0.998 ± 0.023
normalised cell viability [5]: 1.01 ± 0.011
normalised cell viability [6]: 1.01

NCC1(CC(=O)O)CCCCC1 [Gabapentin]
normalised cell viability [1]: 0.9963 ± 0.0063
normalised cell viability [2]: 0.971 ± 0.021
normalised cell viability [3]: 0.998 ± 0.013
normalised cell viability [4]: 0.976 ± 0.021
normalised cell viability [5]: 0.9867 ± 0.0025
normalised cell viability [6]: 0.9807 ± 0.0055

CCN1CCN(C(=O)Cc2ccc(Nc3ncc(F)c(Nc4ccc(C(=O)Nc5ccccc5Cl)cc4)n3)cc2)CC1 [Aurora A Inhibitor I]
normalised cell viability [1]: 0.901 ± 0.019
normalised cell viability [2]: 0.966 ± 0.019
normalised cell viability [3]: 0.875 ± 0.055
normalised cell viability [4]: 0.939 ± 0.027
normalised cell viability [5]: 0.87 ± 0.03
normalised cell viability [6]: 0.991 ± 0.013

CCCn1c(=O)c2[nH]c(C3CCCC3)nc2n(CCCOC(=O)c2ccc(S(=O)(=O)F)cc2)c1=O
normalised cell viability [1]: 0.992 ± 0.011
normalised cell viability [2]: 0.992 ± 0.033
normalised cell viability [3]: 0.984 ± 0.011
normalised cell viability [4]: 0.962 ± 0.011
normalised cell viability [5]: 0.9787 ± 0.0075
normalised cell viability [6]: 0.985 ± 0.0089

CCOC(=O)c1cncn1[C@H](C)c1ccccc1 [Etomidate]
normalised cell viability [1]: 0.9933 ± 0.006
normalised cell viability [2]: 1.02 ± 0.01
normalised cell viability [3]: 1.002 ± 0.0072
normalised cell viability [4]: 1.02 ± 0.021
normalised cell viability [5]: 1.002 ± 0.0076
normalised cell viability [6]: 0.9977 ± 0.004

CCC1(c2ccc(N)cc2)CCC(=O)NC1=O (racemic) [(±)-p-Aminoglutethimide]
normalised cell viability [1]: 0.997 ± 0.0052
normalised cell viability [2]: 1.01
normalised cell viability [3]: 0.866 ± 0.23
normalised cell viability [4]: 1 ± 0.027
normalised cell viability [5]: 1.006 ± 0.0063
normalised cell viability [6]: 1

CCCCCCC(C)(C)c1ccc([C@@H]2C[C@H](O)CC[C@H]2CCCO)c(O)c1
normalised cell viability [1]: 1.01
normalised cell viability [2]: 1.023 ± 0.0058
normalised cell viability [3]: 0.992 ± 0.0035
normalised cell viability [4]: 1.015 ± 0.0071
normalised cell viability [5]: 0.984 ± 0.012
normalised cell viability [6]: 1.004 ± 0.0098

CN1[C@@H]2CC[C@H]1C[C@@H](OC(=O)c1cc(Cl)cc(Cl)c1)C2 [3-Tropanyl-3,5-dichlorobenzoate]
normalised cell viability [1]: 0.9737 ± 0.0057
normalised cell viability [2]: 0.962 ± 0.024
normalised cell viability [3]: 1.01 ± 0.025
normalised cell viability [4]: 1.02 ± 0.015
normalised cell viability [5]: 0.9827 ± 0.0051
normalised cell viability [6]: 0.9933 ± 0.0083

O=[N+]([O-])c1ccc(O[C@@H]2O[C@H](CO)[C@@H](O)[C@H](O)[C@H]2F)c([N+](=O)[O-])c1 [2,4-Dinitrophenyl 2-fluoro-2-deoxy-beta-D-glucopyranoside]
normalised cell viability [1]: 0.9917 ± 0.004
normalised cell viability [2]: 0.989 ± 0.02
normalised cell viability [3]: 0.991 ± 0.023
normalised cell viability [4]: 0.974 ± 0.03
normalised cell viability [5]: 0.9807 ± 0.0021
normalised cell viability [6]: 0.9817 ± 0.0064

O=C(O)c1nn(Cc2ccc(Cl)cc2Cl)c2ccccc12 [Lonidamine]
normalised cell viability [1]: 1.006 ± 0.0075
normalised cell viability [2]: 0.997 ± 0.012
normalised cell viability [3]: 1.01 ± 0.013
normalised cell viability [4]: 0.997 ± 0.011
normalised cell viability [5]: 0.9953 ± 0.0032
normalised cell viability [6]: 1 ± 0.015

CC(C)(C)c1cc(C=C(C#N)C#N)cc(C(C)(C)C)c1O [Tyrphostin 9]
normalised cell viability [1]: 1 ± 0.021
normalised cell viability [2]: 0.725 ± 0.028
normalised cell viability [3]: 0.9987 ± 0.0011
normalised cell viability [4]: 1.05 ± 0.031
normalised cell viability [5]: 1.007 ± 0.0058
normalised cell viability [6]: 0.402 ± 0.13

CC(C)(C)c1cc(C=C(C#N)C#N)cc(C(C)(C)C)c1O [Tyrphostin A9]
normalised cell viability [1]: 0.978 ± 0.018
normalised cell viability [2]: 0.444 ± 0.018
normalised cell viability [3]: 1.02 ± 0.02
normalised cell viability [4]: 0.864 ± 0.039
normalised cell viability [5]: 1.02 ± 0.011
normalised cell viability [6]: 0.16 ± 0.025

CCC1(C2=NCCN2)Cc2ccccc2O1 (stereo not drawn) [Efaroxan hydrochloride]
normalised cell viability [1]: 1.017 ± 0.0058
normalised cell viability [2]: 1.02 ± 0.017
normalised cell viability [3]: 1.02 ± 0.011
normalised cell viability [4]: 1.03 ± 0.011
normalised cell viability [5]: 1.023 ± 0.0058
normalised cell viability [6]: 1.017 ± 0.0058

CC[C@@H](CO)NC(=O)[C@@H]1C=C2c3cccc4[nH]cc(c34)C[C@H]2N(C)C1 [Methylergonovine maleate]
normalised cell viability [1]: 1.01 ± 0.01
normalised cell viability [2]: 1.03 ± 0.035
normalised cell viability [3]: 1.01 ± 0.012
normalised cell viability [4]: 1.05 ± 0.067
normalised cell viability [5]: 1
normalised cell viability [6]: 1.02 ± 0.015

NC(N)=Nc1ccc2[nH]c3c(c2c1)C[C@@]1(O)[C@H]2Cc4ccc(O)c5c4[C@@]1(CCN2CC1CC1)[C@H]3O5 [5'-Guanidinonaltrindole di(trifluoroacetate)]
normalised cell viability [1]: 1.017 ± 0.0058
normalised cell viability [2]: 1.01 ± 0.011
normalised cell viability [3]: 1.02 ± 0.011
normalised cell viability [4]: 1.03 ± 0.015
normalised cell viability [5]: 1.013 ± 0.0058
normalised cell viability [6]: 1.017 ± 0.0058

CCOC(=O)c1ncn2c1[C@@H]1CCCN1C(=O)c1cc(OC)ccc1-2
normalised cell viability [1]: 1.006 ± 0.0069
normalised cell viability [2]: 0.989 ± 0.038
normalised cell viability [3]: 1.006 ± 0.0075
normalised cell viability [4]: 1.01 ± 0.011
normalised cell viability [5]: 0.988 ± 0.0027
normalised cell viability [6]: 0.999 ± 0.01

Cc1o[nH]c(=O)c1CC(N)C(=O)O (racemic) [(±)-AMPA hydrobromide]
normalised cell viability [1]: 0.995 ± 0.016
normalised cell viability [2]: 0.983 ± 0.016
normalised cell viability [3]: 0.999 ± 0.0095
normalised cell viability [4]: 0.994 ± 0.025
normalised cell viability [5]: 0.982 ± 0.0027
normalised cell viability [6]: 0.98 ± 0.007

COc1ccc2c(c1O)-c1cccc3c1[C@@H](C2)N(C)CC3 [R(-)-Apocodeine hydrochloride]
normalised cell viability [1]: 0.9967 ± 0.0058
normalised cell viability [2]: 1.007 ± 0.0058
normalised cell viability [3]: 0.996 ± 0.012
normalised cell viability [4]: 1.01 ± 0.015
normalised cell viability [5]: 0.9657 ± 0.0042
normalised cell viability [6]: 0.976 ± 0.0036

C[N+]1(C)CCc2cc3c(cc2[C@H]1[C@@H]1OC(=O)c2c1ccc1c2OCO1)OCO3 [(-)-Bicuculline methbromide, 1(S), 9(R)]
normalised cell viability [1]: 1.013 ± 0.0058
normalised cell viability [2]: 1.02 ± 0.015
normalised cell viability [3]: 1.01 ± 0.013
normalised cell viability [4]: 1.01 ± 0.02
normalised cell viability [5]: 0.9797 ± 0.0011
normalised cell viability [6]: 0.9903 ± 0.0025

C[N+]1(C)[C@@H]2CC(OC(=O)[C@H](CO)c3ccccc3)C[C@H]1[C@@H]1O[C@@H]12 (single isomer, unassigned; (-)) [(-)-Scopolamine methyl nitrate]
normalised cell viability [1]: 1.01
normalised cell viability [2]: 1 ± 0.016
normalised cell viability [3]: 0.923 ± 0.14
normalised cell viability [4]: 1.02 ± 0.01
normalised cell viability [5]: 1.002 ± 0.0072
normalised cell viability [6]: 0.9997 ± 0.0091
